Data from PubChem BioAssay AID1508623 (National Center for Advancing Translational Sciences (NCATS), 2021).
The campaign covered roughly 48,000 compounds. About 450 (0.94%) were called active. Not shown: some 19% with an inconclusive outcome. The call rests on the fitted dose curve; in most records, active means well fitted inhibition curve with a large enough effect; inconclusive means small, poorly fitted or top-dose-only effect; inactive means no such curve, though single readings can be large or run the other way. This is one part of the list.

assay: Primary qHTS for Identification of Small Molecule Inhibitors of Huntingtin Promoter Activity; conditions: HEK293 HTT promoter firefly luciferase reporter (activity 0% = vehicle and -100% = no light), 24 h; series mostly up to 57.5 µM; activity change, negative = inhibition: at the top concentration; further: nearly all actives have a fitted effect of over 50% in size
Procedure, shortened: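 Firefly luciferase readout (Dual-Glo, 10 min RT) after 24 h, 37 °C compound exposure (final up to 57.5 uM) of HEK293 reporter cells cultured 24 h beforehand; PTC124 at 50 uM final as control inhibitor; activity scaled vehicle 0%, zero RLU -100%.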

Activity change, negative = inhibition, inactive:
Cc1cccn2c3c(c(=O)nc12)C(c1cccc(F)c1)CC(=O)N3 (stereo not drawn) -6.86%, N[C@@H](Cc1c[nH]c2ccc(O)cc12)C(=O)O, Cc1ccc(C)c(NC(=O)CSc2c(C)cnc3c2c(=O)n(C)c(=O)n3C)c1 -11%, O=C(Cn1cnc2nc3c(cc2c1=O)CCCC3)N1CCN(c2cccc(C(F)(F)F)c2)CC1 -23.1%, CCOc1ccc(OCC)c(NS(=O)(=O)c2c(C)[nH]c(=O)[nH]c2=O)c1 -8.25%, CN1C[C@@H]2C[C@H]1CN2c1cc2c(cc1F)c(=O)c(C(=O)O)cn2C1CC1 1.47% [at 25.2 µM], CCC(=O)N1c2ccccc2CC1C(=O)N1CCN(c2cccc(OC)c2)CC1 (stereo not drawn) -4.86%, Cc1ccc(N(C)C(=O)CC(C)S(=O)(=O)c2ccc3c(c2)NC(=O)CO3)cc1 (stereo not drawn) -0.659%, CCc1ccc(NC(=O)Cn2ccn(-c3ccc(OC)cc3)c(=O)c2=O)cc1 -23.1%, COc1ccc(CCNC(=O)c2csc3c2CCCCC3)c(OC)c1 -22.3%, COc1ccc(Cn2c(C(=O)O)c(CNC3CCCC3)c3ccc(C)cc32)cc1 -3.88%, Cc1cccc(NC(=O)CC2Nc3cccc4cccc(c34)NC2=O)c1 (stereo not drawn) -9.18%, COC(=O)c1cc2oc(C)cc2n1Cc1cc(C)ccc1C -10.2%, CCOc1ccc(NC(=O)CSc2nc(-c3cccc(Cl)c3)nc3c2Cc2c(CO)cnc(C)c2O3)cc1 -9.85%, Cc1ccc(C)c(NC(=O)Cn2ncc3c([nH]c4ccccc43)c2=O)c1 5.09%, Cc1cc2c(cc1S(=O)(=O)CCC(=O)N(C)C1CCCCC1)OCC(=O)N2 -10.9%, COCCN(Cc1ccco1)C(=O)Cn1ncc2c([nH]c3ccccc32)c1=O -2.11%, Cc1ccc(-c2nnn3c2nc(NCCc2ccccc2)c2ccccc23)cc1 -2.09%, CN(c1ncnc2c1c(-c1ccccc1)cn2-c1cccc(Cl)c1)C1CCCCC1 -26.8%, COc1cccc(NC(=O)CCc2nc(-c3ccc(C(C)(C)C)cc3)no2)c1 -85.2%, Cc1cccc(-n2c(=O)c3c(c4cc(C)ccc4n3C)n(C)c2=O)c1 -13.3%, Cc1ccc(C)c(C(=O)CSc2nc(-c3ccccc3)nc3c2CCCC3)c1 -5.07%, Cc1c(Cl)cccc1NC(=O)N1CCC(CN2CCOCC2)CC1 -9.82%, OCc1ccc(Cl)cc1Cl 0.0215%, CCOc1ccccc1NC(=O)C1CCCN(c2ncnc3onc(-c4ccc(F)cc4)c23)C1 (stereo not drawn) -15.6%, CC(C)C(=O)Nc1nnc(S(=O)(=O)N(C)Cc2ccc(F)cc2)s1 -3.65%, COc1ccc(NC(=O)C2CCN(S(=O)(=O)c3cn(C)cn3)CC2)cc1Cl -11.8%, O=C(c1ccc([N+](=O)[O-])cc1)N(Cc1ccco1)c1ccccn1 -7.88%, CC(=O)OCc1cnc(C)c2oc(=O)c(C(=O)Nc3cc(F)ccc3C)cc12 -6.68%, NC(=O)CN1C(=O)C2(SCC(=O)N2c2cccc(F)c2)c2ccccc21 (stereo not drawn) -0.0728%, COc1ccc(C2C(C(=O)Nc3ccc(C)cc3C)=C(C)Nc3nc(SC)nn32)cc1OC (stereo not drawn) -14.9%, CCCCn1c(=O)c2oc3ccccc3c2n(Cc2ccc(OC)cc2)c1=O -12.1%, Cc1cc(C)cc(NC(=O)c2cn3c4c(ccc(Cl)c4c2=O)OC(C)C3)c1 (stereo not drawn) -6.93%, CCOc1ccc(OCCOCCn2c(-c3ccc(Cl)cc3)nc3ccccc3c2=O)cc1 -13.8%, Cc1cccc(-c2nc(SCCCOc3cc(C)c(Cl)c(C)c3)n3[nH]c(=O)cc3n2)c1 -0.815%, CSc1ncc(C(=O)NCc2ccc(F)cc2)c(-c2ccccc2)n1 -0.0568%, CCCCN(CC)CCCNC(=O)Cn1nc(CC)n2c(cc3sccc32)c1=O 4.59%, COc1ccc2c(c1)c1c(c(=O)n(CCc3ccccc3)c(=O)n1Cc1cccc(C)c1)n2C -13.2%, COC(=O)CC(=O)CSc1nc2cc(C(=O)NC(C)C)ccc2c(=O)n1CCc1ccccc1 -20.1%, O=C(Cc1ccc(-c2ccccc2)cc1)NCCS(=O)(=O)N1CCN(c2cccc(Cl)c2)CC1 -28.4%, CCN(C(=O)CSc1nnc(-c2cc3occc3n2C)n1-c1ccccc1C)c1ccccc1 -12.2%, O=C(CN1C(=O)COc2ccc(S(=O)(=O)N3CCOCC3)cc21)NCc1ccc(Cl)cc1 -5.74%, CCCCCCCCCCCCCCCC(=O)OC[C@@H](NC(=O)C(Cl)Cl)[C@H](O)c1ccc([N+](=O)[O-])cc1 4.18%, CC1c2ccccc2CN1NC(=O)c1ccc(Cl)c(S(N)(=O)=O)c1 (stereo not drawn) -12.8%, CCOc1ccc(Nc2sc(C(=O)c3ccc(F)cc3)c(N)c2S(=O)(=O)c2ccc(C)cc2)cc1 -7.5%, Cc1oc2ncn(CC(C)C)c(=O)c2c1C(=O)NCc1cccc(Cl)c1 -17.4%, CC(C)Oc1ccc(CNC(=O)c2cc3cccc4c3n2CC(C)S4)cc1 (stereo not drawn) -12.1%, CCc1ccc(-c2nc3c(c(SCc4ccccc4)n2)Cc2c(CO)cnc(C)c2O3)cc1 -16%, Cc1ccc(Cn2c(C(=O)Nc3ccc(Cl)cc3)cc3sccc32)cc1 3.6%, COc1cc(Cl)c(C)cc1NC(=O)CNC(=O)Cn1ccc2ccccc2c1=O -6.97%, Cc1ccc(C)c(NC(=O)CSc2nc(=O)n(CCN3CCOCC3)c3c2CCC3)c1 -4.66%, COc1cc2c(cc1OC)C(COc1ccc3c(C)cc(=O)oc3c1)N(C(=O)c1ccc(C)cc1)CC2 (stereo not drawn) -28.8%, CC(C)Cn1cc(NC(=O)NCc2ccc(Cl)cc2)c2ccccc2c1=O -6.46%, CCC(=O)N1c2ccccc2CC1C(=O)NCCCN1CCN(c2cccc(Cl)c2)CC1 (stereo not drawn) 1.89%, Cc1c(C(=O)NCc2ccccc2Cl)sc2nc3n(c(=O)c12)CCCC3 28.2%, COc1ccc(Br)c2c1-c1nc(NC(=O)c3ccc(F)cc3)sc1C2 -4.14%, Cc1ccc2c(c1)C(=O)OC(C(=O)Nc1ccc(C(=O)O)cc1)C2 (stereo not drawn) 4.63%, O=C(Nc1ccc(Cl)cc1)c1ccc2oc(=O)n(Cc3ccccc3)c2c1 -29%, COc1ccc(C(=O)CN2CCN(S(=O)(=O)c3ccc(F)cc3)CC2)cc1 -2.81%, COCCCNc1nc2c(c(=O)n(Cc3ccccc3)c(=O)n2C)n1C -5.93%, COc1ccc(-c2cn3c(n2)sc2cc(C(=O)Nc4ccc(F)cc4)ccc23)cc1 17.2%, CC(=O)N1CCC2(CC1)OC(=O)C(C)=C2C(=O)NCc1ccccc1Cl 7.78%, CC(=O)OC1=C(C(C)=O)N(Cc2ccccc2)S(=O)(=O)c2ccccc21 -11.1%, Cc1cc(NC(=O)c2ccc(F)cc2)ccc1-c1cc2ccccc2oc1=O -21.2%, Cc1ccc(Cl)cc1NC(=O)c1csnn1 -11%, CC1CCN(C(=O)CCS(=O)(=O)c2cc3c(cc2Cl)NC(=O)CO3)CC1 -6%, CCOC(=O)c1nnn(CC(=O)NC(=O)Nc2ccccc2F)c1C(=O)OCC -42.2%, CCCCSc1nnc2[nH]c(=O)cc(C)n12 -12.9%, O=C(c1cc(-c2ccc(Br)cc2)n[nH]1)N1CCN(S(=O)(=O)c2ccc(Br)s2)CC1 -29.3%, CCOc1ccc(Nc2nc(N)c(C(=O)c3ccccc3Cl)s2)cc1 -28.7%, Cc1cccc(CC(=O)NC2CC(=O)N(c3ccc4c(c3)OCCO4)C2)c1 (stereo not drawn) 1.13%, Cc1ccccc1CSc1ncc(Cl)c(C(=O)NCc2ccccc2)n1 -6.83%, CCC(=O)N1CCc2cc(Br)cc(S(=O)(=O)CCC(=O)Nc3ccc(CC)cc3)c21 2.86%, Clc1ccc(Cn2c(CN3CCCC3)nc3ccccc32)cc1 -3.19%, O=C(NC1CCCC1)c1ccc2c(=O)n(Cc3ccccc3)c(SCc3ccc([N+](=O)[O-])cc3)nc2c1 3.23%, CCc1ccc(-n2nc(CO)c(C(=O)NC(C)c3ccc(Cl)cc3)n2)cc1 (stereo not drawn) -3.31%, COc1cccc(CNC(=O)CN2C(=O)CCc3cc(S(=O)(=O)N4CCOCC4)ccc32)c1 -24.7%, COc1ccc(OC)c2sc(N(Cc3cccnc3)C(C)=O)nc12 -5.51%, Cc1ccc(Sc2ccc(N3CCCC(C(=O)Nc4ccc(Br)cc4)C3)nn2)cc1 (stereo not drawn) -30.6%, Cc1c(C)n(Cc2ccccc2)c2ccc(C(=O)N3CCN(c4ccccc4F)CC3)cc12 -0.493%, Cc1nc2ccn(Cc3cccnc3)c(=O)c2cc1C(=O)N1CCN(c2ccccc2F)CC1 -1.61%, O=C(NCCc1ccc(Cl)cc1)c1cc(-c2ccccc2)n[nH]1 -14%, COc1ccc(SCc2cc(=O)c3ccc(C)c(C)c3[nH]2)cc1 3.4%, CCOc1ccc(-c2nnc(SCC(=O)NC3CCCCC3)nc2-c2ccc(OCC)cc2)cc1 -0.464%, Cc1ccc(C)c(N2CCN(c3nc4ccccc4c(=O)n3-c3ccc(Cl)cc3)CC2)c1 -12.3%, COc1ccc2c(c1)Cc1sc(NC(=O)c3ccccc3C)nc1-2 8.31%, COc1cc2nc(N(C)CCCNC(=O)C3CCCO3)nc(N)c2cc1OC (stereo not drawn), COc1ccc(C2=C(C)C(N3CCC(C(=O)NCc4ccc(C)o4)CC3)=NS2(=O)=O)cc1 -23.7%, CCN(CC)c1ccc(NC(=O)Cn2ncc3c(C)n(Cc4ccccc4F)c(C)c3c2=O)c(C)c1 7.17%, Cc1ccc(NC(=O)Cc2ccc(NC(=O)N3CCCCc4ccccc43)cc2)cc1Cl -14.9%, CC(=O)c1ccc(NC(=O)Nc2ccc3snnc3c2)cc1 23.1%, Cc1cccc(C)c1-n1ncc(C(=O)NCCCN2CCCCC2)c1C1CCN(C(=O)OC(C)(C)C)CC1 -13.8%, CCCCOc1ccc(C(=O)NCC(c2ccc(Cl)cc2)N2CCOCC2)cc1 (stereo not drawn) -5.83%, COC(=O)c1nnn(-c2cccc(C)c2)c1N 14.5%, COc1ccc(-n2c(SCc3nc(-c4ccc(C)cc4)no3)nnc2-c2ccccc2)cc1 -8.27%, CC(C)Oc1ccc(CNC(=O)CN2C(=O)CCn3nc(-c4cn(C)c5ccccc45)cc32)cc1 5.43%, CC1CN(C(=O)Nc2ccc(C(=O)NCc3ccccc3F)cc2)c2ccccc2S1 (stereo not drawn) -34.6%, COC(=O)c1ccc(NC(=O)CSc2n[nH]c(-c3ccccc3)n2)cc1 0.484%
